Experimental findings from article PMC6212790 are described below.

This is one part of the list. At the low end of the ranking the order means little.

This assay concerns the target T1, GST-Rok-C97-191 (UniProt O34857).
T1 sequence: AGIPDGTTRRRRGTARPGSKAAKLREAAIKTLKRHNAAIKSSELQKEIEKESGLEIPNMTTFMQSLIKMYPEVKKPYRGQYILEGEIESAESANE
Briefly: protein binding microarray.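 Also: rank score from −0.5 (least bound) to 0.5 (best bound).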 As to conditions: Rok is a gene silencer of Bacillus subtilis; high values mean tight binding; most listed sequences are background and not binding sites; double strand, one strand shown.
In the case of CCTTTACC, the binding signal is -0.154 E-score.
The value for CGTCTCAA was -0.147 E-score; that for CGCGCTCC was -0.152 E-score.
The same measure for TCGTCAAA: -0.177 E-score.
In turn, AGTCATAC yielded a binding signal of 0.0487 E-score.
In the case of AGGTTTAA, the binding signal was -0.0984 E-score.
Regarding GAACGGTA, the binding signal was 0.25 E-score.
The value for GAACCCAA was -0.0111 E-score; that for CCATTCCG was -0.00607 E-score.
Take AACGAAAT: the binding signal worked out at 0.151 E-score.
The same measure for GGTAGAGA: 0.173 E-score.
Turning to GAAGATAA, the binding signal amounted to 0.224 E-score.
The value for GCAGGAGA was -0.1 E-score.
The same measure for CTGCAGCA: 0.0837 E-score; for AACTACAG: 0.327 E-score; for GACCGACA: 0.045 E-score.
The same measure for AATCCTTC: 0.0128 E-score.
ATAATAGG: the binding signal turned out to be 0.204 E-score.
The value for ATCTATGA was 0.21 E-score.
The same measure for GCTCCCCA: -0.358 E-score; for ATGCAAAA: 0.0921 E-score.
Sequence CACTAATA returned a binding signal of 0.33 E-score.
The same measure for GCTTTCTA: 0.319 E-score; for AAACGCAG: -0.202 E-score; for GTCACTAA: -0.0156 E-score.
The same measure for AAAGATGC: -0.164 E-score; for ACGCGGCC: -0.303 E-score; for AAGGCTAT: -0.189 E-score.
The value for AAGATTAT was 0.193 E-score; that for CGATTTCC was -0.0329 E-score.
CTAAAGCA returned a binding signal of 0.0775 E-score.
The value for AGCATGGC was -0.257 E-score.
The same measure for ACCTGCGT: -0.201 E-score.
The value for TAACAGTA was 0.342 E-score; that for CAGCGTCA was -0.136 E-score; that for ATCCTGAC was -0.111 E-score.
In the case of GGGATCAA, the binding signal worked out at 0.087 E-score.
The value for CCCCCAGC was -0.235 E-score; that for CACGCCGA was -0.114 E-score; that for TAAGGAGA was -0.0645 E-score.
The same measure for TAGGAGCA: -0.0514 E-score; for ACGTCCGA: -0.0789 E-score.
The same measure for TACTCCTA: 0.2 E-score; for ATGTAGCA: 0.249 E-score; for CGCAACCG: 0.0123 E-score.
AAACCGGC returned a binding signal of 0.00711 E-score.
The same measure for CTACGTAC: 0.179 E-score.
The value for AAGGGAAC was -0.0526 E-score.
The value for GGTTTTAC was 0.0171 E-score; that for AAACGTGC was -0.0643 E-score.
AGCCCCAC displayed a binding signal of -0.285 E-score.
The same measure for AACGAATC: 0.0675 E-score.
The same measure for GGTCCTAA: -0.141 E-score.
As to AAGCCTCG, the binding signal was -0.157 E-score.
The same measure for AAAGGCGA: -0.163 E-score; for CCTGCCCG: -0.291 E-score.
The same measure for ATCGAAAG: -0.0779 E-score.
The same measure for ATTCAGTC: 0.00215 E-score.
GACAAGCC yielded a binding signal of -0.303 E-score.
GTGGGACA had a binding signal of -0.0102 E-score.
AGTTGCTC showed a binding signal of -0.0215 E-score.
With AGTTCCGC, the binding signal came out at 0.016 E-score.
The same measure for GACTGGTA: 0.0942 E-score.
The value for ACCCAATA was 0.126 E-score.
The same measure for GAGTCCGC: -0.156 E-score; for CCGAAGCG: -0.137 E-score.
In turn, ATGACAAG came in with a binding signal of 0.0967 E-score.
In turn, AACTGCGC gave a binding signal of -0.0988 E-score.
The value for TAAATATA was 0.378 E-score; that for CGCTCACA was -0.108 E-score.
As to AATCAACC, the binding signal was -0.0341 E-score.
The value for AAATCCCT was -0.144 E-score; that for AAGAAACA was 0.209 E-score.
The sequence TTCGGCAA gave a binding signal of 0.0828 E-score.
The sequence GGAAAGCC had a binding signal of -0.359 E-score.
As to CGTGGGAA, the binding signal was -0.123 E-score.
The value for GACTTGGA was 0.0497 E-score; that for GACCTGCC was -0.252 E-score.
Turning to AGAAACTA, the binding signal worked out at 0.377 E-score.
The value for ATTACTCA was 0.159 E-score.
The value for TGAAGGAA was -0.162 E-score; that for ACACCGAC was -0.15 E-score; that for CGCGGATA was 0.0026 E-score.
Sequence GCAGGTGA returned a binding signal of -0.204 E-score.
The value for GTAAATTA was 0.378 E-score.
The value for CTTATCTC was 0.0402 E-score; that for AATTGCTC was 0.117 E-score; that for GACAGATC was -0.173 E-score.
Take CTTGATCA: the binding signal is -0.0378 E-score.
The value for GAGGCGGA was -0.213 E-score.
TCCCAAAA came in with a binding signal of -0.229 E-score.
The same measure for ATCCAGAC: -0.0379 E-score.
The value for ATATGATA was 0.226 E-score.
The value for GTACAAGA was 0.115 E-score; that for ACACTAGC was -0.055 E-score.
For the sequence GGGGAAGA, the binding signal was -0.299 E-score.
Consider CGTCTGGC, for which the binding signal was -0.0441 E-score.
The value for CTCGCCTC was -0.271 E-score; that for AGCAAGAA was 0.138 E-score; that for ATATGAAA was 0.137 E-score.
Sequence AGCGCTCC displayed a binding signal of -0.204 E-score.
The same measure for TGGGGGAA: -0.219 E-score; for AGGGTTAA: 0.157 E-score; for CCGCAGTA: 0.0802 E-score.
The same measure for TCAAAGGA: -0.112 E-score.
ACCCGTCG returned a binding signal of -0.0666 E-score.
As to ACAGATCA, the binding signal is -0.0524 E-score.
Regarding ACGACATC, the binding signal turned out to be 0.0706 E-score.
The sequence AGTCTTTC showed a binding signal of -0.0129 E-score.
The same measure for ACATCGGT: -0.00865 E-score.
